From PubChem BioAssay AID504832 (National Center for Advancing Translational Sciences (NCATS), 2011)
Screen size: about 310,000 compounds; about 18,000 (5.8%) were called active. The inconclusive results got no clear call from the source; some entries with a clear call stand among them for comparison. Calls follow the shape of the dose curve; as a rule, active = well fitted inhibition curve with a large enough effect; inconclusive = small, poorly fitted or top-dose-only effect, or another doubt; inactive = no such curve, though single readings can be large or run the other way. No potency is given beside an inconclusive call; the fits are too rough.

Assay: Primary qHTS for delayed death inhibitors of the malarial parasite plastid, 48 hour incubation
Conditions: P. falciparum luciferase growth in erythrocytes; series mostly up to 28.7 µM; activity change, negative = inhibition: at the top concentration
How it was run: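 Parasite viability was followed by luminescence of a genomically integrated firefly luciferase. Cultures held 0.1% parasitemia at 2% hematocrit (final), incubated under 5% CO2 at 37 C.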
% is scaled to controls: 0 for no effect and ±100 for the full control effect; potency is read from the fitted curve at half-maximal effect; tags tell the direction and shape of the fitted curve.

| SMILES | Potency | activity change, negative = inhibition |
| --- | --- | --- |
| COc1cc(OC)c2c(c1)S(=O)(=O)C(c1ccccc1)=C2N | inconclusive [inhibitor, partial curve, poor fit] | – |
| O=C(Nc1ccc(S(=O)(=O)N2CCCC2)cc1)C1CC(=O)N(c2ccc(F)cc2)C1 (stereo unspecified) | inconclusive [inhibitor, partial curve] | – |
| CC(CCc1ccccc1)NC(=O)C1CCN(c2nnc(-n3cccc3)s2)CC1 (stereo unspecified) | inconclusive [inhibitor, single point] | – |
| O=C1NCC(COc2cccc3ccccc23)O1 (stereo unspecified) | inconclusive [inhibitor, partial curve, poor fit] | – |
| Cc1nn(Cc2ccc(F)cc2)c(C)c1NC(=O)c1noc2c1CCc1ccccc1-2 | inconclusive [inhibitor, single point] | – |
| CN(Cc1ccccc1)c1ncnc2ccc(Br)cc12 | inconclusive [inhibitor, single point] | – |
| CCOc1ccc2oc(C(=O)OCC(=O)N3CCCC(C)C3)c(C)c2c1 (stereo unspecified) | inconclusive [inhibitor, single point] | – |
| O=c1[nH]nc(CNc2ccc(C(F)(F)F)cc2)c2ccccc12 | – | inactive: 58.7% |
| COc1cccc(CNC(=O)CN2C(=O)COc3ccc(S(=O)(=O)N4CCCCC4)cc32)c1 | – | inactive: -29.6% |
| NS(=O)(=O)c1ccc(CCNC(=O)CSc2nc3ccccc3c(=O)n2CC2CCCO2)cc1 (stereo unspecified) | inconclusive [inhibitor, partial curve] | – |
| CC(C)C[C@H](NC(=O)c1[nH]cnc1C(=O)N[C@@H](C)C(=O)OCc1ccccc1)C(=O)OC(C)(C)C | inconclusive [inhibitor, partial curve, poor fit] | – |
| Nc1c(S(=O)(=O)c2cccs2)c2nc3ccccc3nc2n1Cc1ccccc1 | inconclusive [inhibitor, single point] | – |
| CC(C)c1c(C(=O)N/N=C/c2cccc3ccccc23)nnn1-c1nonc1N | – | inactive: -23.2% |
| CCCCCCCCCCOC(=O)Cn1c(COc2cccc(OC)c2)[n+](C)c2ccccc21 | inconclusive [inhibitor, partial curve] | – |
| c1ccc2cc(C3N4CCCN34)ccc2c1 (stereo unspecified) | – | inactive: 41.4% |
| Cc1ccc(Sc2ncccc2C(=O)N(C)Cc2cccs2)c(C)c1 | inconclusive [inhibitor, partial curve, poor fit] | – |
| N#Cc1ccc(-c2cccnc2)nc1SCC(=O)Nc1sc2c(c1C#N)CCC2 | inconclusive [inhibitor, single point] | – |
| Cc1ccc2c(c1)N1C(=O)c3ccccc3C1C1=C(CC(C)(C)CC1=O)N2 (stereo unspecified) | inconclusive [inhibitor, single point] | – |
| Cc1ccc(NC(=O)CSc2nc(O)c(Cc3ccccc3)c(=O)n2-c2ccccc2)cc1 | – | inactive: 14.2% |
| COc1ccc(-c2cc(C(F)F)n3ncc(C(=O)N4CCc5ccccc54)c3n2)cc1 | inconclusive [inhibitor, full curve, poor fit] | – |
| COc1ccc(CC(NC(C)=O)C(=O)NC2CCN(c3nnnn3-c3ccccc3)CC2)cc1 (stereo unspecified) | – | inactive: -12.7% |

| SMILES | Potency | activity change, negative = inhibition |
| --- | --- | --- |
| O=C(c1cc(-c2ccccc2)nc2ccccc12)N1CCc2ccccc2C1 | inconclusive [inhibitor, single point] | – |
| COc1ccccc1C(CCNCc1ccccc1)c1ccc(OC(C)C)cc1 (stereo unspecified) | inconclusive [inhibitor, single point] | – |
| Cc1ccc(C(=O)SC2=NCCS2)cc1 | – | inactive: 11.2% |
| CCOc1ccc(CCNC(=O)c2cc3c(C)nccc3[nH]c2=O)cc1OCC | inconclusive [inhibitor, single point] | – |
| O=C(NCCCn1ccnc1)C(=O)Nc1ccccc1 | – | inactive: 23.6% |
| CCCN(CCC)CCNC(=O)c1cc2c(=O)n(CC)c3ccccc3c2s1 | inconclusive [inhibitor, single point] | – |
| O=C(NCc1ccc2c(c1)OCO2)C(=O)NCC1OCCN1S(=O)(=O)c1ccc(Cl)cc1 (stereo unspecified) | inconclusive [inhibitor, partial curve] | – |
| CCc1ccccc1OCC(=O)NNCC(=O)Nc1cccc(C#N)c1 | inconclusive [inhibitor, single point] | – |
| CC(NC(=O)C1CCN(C(=O)Nc2ccccc2)CC1)c1ccc(Cl)cc1 (stereo unspecified) | inconclusive [inhibitor, partial curve, poor fit] | – |
| Cc1cc(Br)c(OCc2ccc(C(=O)N/N=C3\CC(=O)CC(C)(C)C3)cc2)c(Br)c1 | inconclusive [inhibitor, partial curve] | – |
| CC(C)n1ncc2c(C(=O)N3CCN(c4ccc(F)cc4)CC3)cc(-c3ccccc3)nc21 | active: 11.7 µM | – |
| CCOc1ccccc1N(CC(=O)NC(C)(C)C)C(=O)CCC(=O)Nc1nccs1 | inconclusive [inhibitor, partial curve, poor fit] | – |
| Cc1ccc(CN2CCN(CC(=O)NCCCN3CCN(c4ccc(F)cc4)CC3)C2=O)cc1 | inconclusive [inhibitor, single point] | – |
| Cc1cc(N2CCN(C)CC2)nc2ccc(NC(=O)CCC3CCCC3)cc12 | inconclusive [inhibitor, single point] | – |
| Cc1ccc(C(=O)Nc2nc(-c3ccco3)c(-c3ccco3)s2)o1 | inconclusive [inhibitor, single point] | – |
| CC(C)(Oc1ccc(Cl)cc1)C(=O)Nc1ccncc1 | inconclusive [inhibitor, single point] | – |
| COc1ccc(N(C(=O)CCl)C(C(=O)NCCc2ccccc2)c2cccs2)cc1 (stereo unspecified) | active: 14.7 µM | – |
| COC(=O)C1=C(C)N(Cc2ccccc2)C(=NCCc2ccccn2)N[C@H]1c1cccc(C(F)(F)F)c1 | inconclusive [inhibitor, partial curve, poor fit] | – |
| c1ccc(Oc2c3ccccc3nc3ccccc23)cc1 | active: 7.38 µM | – |
| COc1cccc(N2CCN(c3ccc4nnc(CCC(=O)N5CCC(C)CC5)n4n3)CC2)c1 | active: 8.28 µM | – |
